In PubChem BioAssay AID686971 (National Center for Advancing Translational Sciences (NCATS), 2013):
Out of some 360,000 compounds screened, about 7,500 (2.1%) were called active. The inconclusive results got no clear call from the source; some entries with a clear call stand among them for comparison. Calls follow the shape of the dose curve; as a rule, active = well fitted cell-killing curve with a large enough effect; inconclusive = small, poorly fitted or top-dose-only effect, or effect the other way, or another doubt; inactive = no such curve, though single readings can be large or run the other way. No potency is given beside an inconclusive call; the fits are too rough.

experiment: qHTS for induction of synthetic lethality in tumor cells producing 2HG: qHTS for the HT-1080-IDH1KD cell line; settings: HT-1080 IDH1 knockdown viability, ATP luminescence, 48 h; activity, negative = toxicity: at 46.1 µM (top of the series) unless noted;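 as to activity, negative = toxicity: 0% = DMSO wells and -100% = cell-free medium wells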
Summary of the method: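 HT-1080-IDH1KD cells (IDH1 knocked down), 750/well in RPMI with 5% FBS, treated with compound 48 h at 37 degrees C. Viability by CellTiter-Glo luminescence, normalised to DMSO and no-cell wells; concentration-response curves classed.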
Potency is read from the fitted curve at half-maximal effect; tags tell the direction and shape of the fitted curve.

| Structure (SMILES) | Potency | activity, negative = toxicity |
| --- | --- | --- |
| C#Cc1ccc(NC(=O)C2(C)CCN2C(=O)Cc2ccc(-c3ccccc3)cc2)cc1 (stereo not given) | inconclusive [cytotoxic, full curve] | – |
| C/C(=N/NC(=O)c1ccccn1)c1ccco1 | inconclusive [cytotoxic, single point] | – |
| CC(=O)c1c(C)oc2ccc(N(C(C)=O)S(=O)(=O)c3ccc(Cl)c([N+](=O)[O-])c3)cc12 | active: 6.51 µM | – |
| COCCCNC(=O)/C(C#N)=C/c1ccc(OCC(=O)O)c(OC)c1 | inconclusive [rising, partial curve, poor fit] | – |
| Cn1cc(/C=C2\SC(=O)NC2=S)c2ccccc21 | inconclusive [cytotoxic, partial curve] | – |
| Oc1cccc2ccc(/C=C/c3cccs3)nc12 | active: 11.2 µM | – |
| CNC(=O)CSc1nc(-c2ccccc2)c(-c2ccccc2)[nH]1 | inconclusive [cytotoxic, single point] | – |
| Cc1cccc(S(=O)(=O)N2CCCc3ccccc32)c1 | inactive | – |
| COc1ccc(CC(N)c2csc(Nc3nncc4ccccc34)n2)cc1 (stereo not given) | inconclusive [cytotoxic, single point] | – |
| O=C(C1=C[C@@H](C2CCCCC2)C[C@@H](OCc2ccc(CO)cc2)O1)N1CCN(Cc2ccc3c(c2)OCO3)CC1 | inconclusive [cytotoxic, single point] | – |
| CCCCC(=O)N1CCN(c2nc3ccc(Cl)cc3s2)CC1 | inconclusive [cytotoxic, single point] | – |
| COc1ccc(CN2CCCC(C(=O)Nc3cccc(-n4cccn4)c3)C2)cc1 (stereo not given) | inconclusive [cytotoxic, partial curve] | – |
| O=C(c1cc(COc2ccc(F)cc2Cl)on1)N1CCCC(c2ccccc2)C1 (stereo not given) | inconclusive [cytotoxic, single point] | – |
| COc1ccc(Br)cc1C(C[N+](=O)[O-])c1c(N)n(C)c(=O)n(C)c1=O (stereo not given) | inconclusive [cytotoxic, partial curve] | – |
| O=C(CSc1nnc2ccc(-c3ccncc3)nn12)Nc1ccc(F)cc1 | inactive | – |
| COc1cccc(CN(C(=O)/C=C/c2ccc(Cl)cc2)C2CCS(=O)(=O)C2)c1 (stereo not given) | inactive | – |
| COc1cc(/C=N/Nc2nc(=O)[nH]nc2C)ccc1O | inactive | – |
| COc1ccc(-c2ccc(C(=O)Nc3cc(OC)c(OC)c(OC)c3)c3occc23)c(C)c1 | inconclusive [cytotoxic, single point] | – |
| C[n+]1cccc2ccc3c(c21)OC(N)=C(C#N)C3c1ccccc1 (stereo not given) | inconclusive [cytotoxic, partial curve] | – |
| CC(C)(C)c1ccc(C(=O)N2CCNCC2)cc1 | inactive | – |
| Cc1cc(C(=O)CSc2nnnn2C)c(C)n1CCc1ccc(F)cc1 | inconclusive [cytotoxic, single point] | – |
| COc1ccc(NC(=O)Cn2nnc(-c3ccccc3NC(=O)c3ccco3)n2)cc1 | inconclusive [cytotoxic, full curve] | – |
| Cc1ccc(C)c(CC(=O)N2CCCC(c3cc(C(=O)Nc4ccc5c(c4)OCO5)no3)C2)c1 (stereo not given) | inconclusive [cytotoxic, full curve] | – |

| Structure (SMILES) | Potency | activity, negative = toxicity |
| --- | --- | --- |
| CC(NS(=O)(=O)c1ccc(N)cc1)C1CC2CCC1C2 (stereo not given) | inconclusive [cytotoxic, full curve, poor fit] | – |
| CCCCN=c1scc(-c2ccc3c(c2)NC(=O)CO3)n1N=C1CCCC1 | inconclusive [cytotoxic, single point] | – |
| Cc1sc(NC(=O)c2ccco2)c(C(Nc2ccccn2)c2ccccc2)c1C (stereo not given) | inactive | – |
| CCOC(=O)NN1C(=O)c2ccccc2NC1c1cccnc1 (stereo not given) | inactive | – |
| Cc1occc1C(=O)Nc1ccc(OCc2ccccc2)cc1 | inconclusive [cytotoxic, single point] | – |
| Oc1cccc(-c2nc3ccc4ccccc4c3c3c2CCC3)c1 | inconclusive [cytotoxic, single point] | – |
| Cc1sc(NC(=O)Cc2ccc3c(c2)OCO3)nc1-c1ccc2c(c1)CCN2C(=O)c1ccccc1F | – | inconclusive: -31.6% [cytotoxic] |
| CCCc1nnc(NC(=O)CCC(=O)NCc2ccc(OC)cc2)s1 | inactive | – |
| COc1cc(/C=N/NC(=O)C23CC4CC(CC(C4)C2)C3)cc(Br)c1O | inactive | – |
| Cc1ccc(Cl)cc1Nc1nc(-c2sc(NC(=O)c3ccco3)nc2C)cs1 | inconclusive [cytotoxic, single point] | – |
| O=C(NC1CCCCC1)N1CCN(CCc2ccccc2)CC1 | inactive | – |
| COc1cc(C(=O)NNC(=S)NC(=O)/C=C/c2ccccc2)cc(OC)c1OC | inconclusive [cytotoxic, partial curve] | – |
| Cc1ccccc1-c1csc(C(C)(O)c2ccc(F)c(F)c2)n1 (stereo not given) | inconclusive [cytotoxic, single point] | – |
| Cc1nn(-c2ccc(F)cc2)c(-n2cccc2)c1C(=O)N1CCN(C(=O)c2ccco2)CC1 | inactive | – |
| CCc1ccc(C2c3[nH]c4ccccc4c3CCN2C(=O)c2cc[n+]([O-])cc2)cc1 (stereo not given) | inconclusive [cytotoxic, partial curve, poor fit] | – |
| Cc1ccc(S(=O)(=O)Nc2ccc(C(OC(=O)c3ccccc3[N+](=O)[O-])(C(F)(F)F)C(F)(F)F)cc2)cc1 | inconclusive [cytotoxic, single point] | – |
| COc1ccc(-c2n[nH]c(C(F)(F)F)c2-c2cc3ccccc3o2)c(O)c1 | inconclusive [cytotoxic, single point] | – |
| COc1ccc(C(=O)NNC(=S)NC(=O)/C=C/c2cccs2)cc1 | – | inconclusive: -21.2% [cytotoxic] |
| Cc1cc(=O)oc2cc(NS(=O)(=O)c3ccccc3)ccc12 | inactive | – |
| Cc1c(-c2ccc(Br)cc2)nc2ccccn12 | inactive | – |
| O=C(CNS(=O)(=O)c1c(F)cccc1F)NC1CCCc2ccccc21 (stereo not given) | inactive | – |
| COc1cc(CN2CCN(Cc3c[nH]c4ccccc34)CC2CCO)cc(OC)c1 (stereo not given) | inactive | – |
